Results reported in publication PMC9911399, “Two distinct binding modes provide the RNA-binding protein RbFox with extraordinary sequence specificity”.
Residue numbers refer to the chain shown, from its start. Some of the results follow.

T1: RBFOX1 RRM (Homo sapiens, UniProt Q9NWB1 109-208)
T1 sequence: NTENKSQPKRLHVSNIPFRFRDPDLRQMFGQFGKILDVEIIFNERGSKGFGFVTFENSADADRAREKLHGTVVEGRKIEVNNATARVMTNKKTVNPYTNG

B1: CGGCGAA (DNA:RNA)
RNA: GGGAGACCGGAAUUCAGAUUGUCCCGGCGAAUUAAAUCCCGUCGUAGCCACCA
DNA 1: CAATCTGAATTCCGGTCTCCC
DNA 2: TGGTGGCTACGACGGGATT
B2: CGCAGUA (DNA:RNA)
RNA: B1 RNA with G27C, C28A, A30U
DNA 1: CAATCTGAATTCCGGTCTCCC
DNA 2: TGGTGGCTACGACGGGATT
B3: UGCGUGU (DNA:RNA)
RNA: B1 RNA with C25U, G27C, C28G, G29U, A30G, A31U
DNA 1: CAATCTGAATTCCGGTCTCCC
DNA 2: TGGTGGCTACGACGGGATT
B4: UUGGACU (DNA:RNA)
RNA: B1 RNA with C25U, G26U, C28G, G29A, A30C, A31U
DNA 1: CAATCTGAATTCCGGTCTCCC
DNA 2: TGGTGGCTACGACGGGATT
B5: GUUGCCG (DNA:RNA)
RNA: GGGAGACCGGAAUUCAGAUUGUCCGUUGCCGUUAAAUCCCGUCGUAGCCACCA
DNA 1: CAATCTGAATTCCGGTCTCCC
DNA 2: TGGTGGCTACGACGGGATT
B6: UACCAAA (DNA:RNA)
RNA: B1 RNA with C25U, G26A, G27C, G29A
DNA 1: CAATCTGAATTCCGGTCTCCC
DNA 2: TGGTGGCTACGACGGGATT
B7: UCAUAGA (DNA:RNA)
RNA: B1 RNA with C25U, G26C, G27A, C28U, G29A, A30G
DNA 1: CAATCTGAATTCCGGTCTCCC
DNA 2: TGGTGGCTACGACGGGATT
B8: CAGUCGC (DNA:RNA)
RNA: B1 RNA with G26A, C28U, G29C, A30G, A31C
DNA 1: CAATCTGAATTCCGGTCTCCC
DNA 2: TGGTGGCTACGACGGGATT
B9: CCCACGU (DNA:RNA)
RNA: B1 RNA with G26C, G27C, C28A, G29C, A30G, A31U
DNA 1: CAATCTGAATTCCGGTCTCCC
DNA 2: TGGTGGCTACGACGGGATT
B10: CGCCCGU (DNA:RNA)
RNA: B1 RNA with G27C, G29C, A30G, A31U
DNA 1: CAATCTGAATTCCGGTCTCCC
DNA 2: TGGTGGCTACGACGGGATT
B11: CAAGCUC (DNA:RNA)
RNA: B5 RNA with G25C, U26A, U27A, C30U, G31C
DNA 1: CAATCTGAATTCCGGTCTCCC
DNA 2: TGGTGGCTACGACGGGATT
B12: UAUAUGU (DNA:RNA)
RNA: B5 RNA with G25U, U26A, G28A, C29U, C30G, G31U
DNA 1: CAATCTGAATTCCGGTCTCCC
DNA 2: TGGTGGCTACGACGGGATT
B13: AUAGUUC (DNA:RNA)
RNA: B5 RNA with G25A, U27A, C29U, C30U, G31C
DNA 1: CAATCTGAATTCCGGTCTCCC
DNA 2: TGGTGGCTACGACGGGATT
B14: AGUUCGC (DNA:RNA)
RNA: B5 RNA with G25A, U26G, G28U, C30G, G31C
DNA 1: CAATCTGAATTCCGGTCTCCC
DNA 2: TGGTGGCTACGACGGGATT
B15: GCAACAC (DNA:RNA)
RNA: B5 RNA with U26C, U27A, G28A, C30A, G31C
DNA 1: CAATCTGAATTCCGGTCTCCC
DNA 2: TGGTGGCTACGACGGGATT
B16: GACGUCC (DNA:RNA)
RNA: B5 RNA with U26A, U27C, C29U, G31C
DNA 1: CAATCTGAATTCCGGTCTCCC
DNA 2: TGGTGGCTACGACGGGATT
B17: ACGAGCC (DNA:RNA)
RNA: B1 RNA with C25A, G26C, C28A, A30C, A31C
DNA 1: CAATCTGAATTCCGGTCTCCC
DNA 2: TGGTGGCTACGACGGGATT
B18: GGACAGC (DNA:RNA)
RNA: B1 RNA with C25G, G27A, G29A, A30G, A31C
DNA 1: CAATCTGAATTCCGGTCTCCC
DNA 2: TGGTGGCTACGACGGGATT
B19: AAAACUG (DNA:RNA)
RNA: B5 RNA with G25A, U26A, U27A, G28A, C30U
DNA 1: CAATCTGAATTCCGGTCTCCC
DNA 2: TGGTGGCTACGACGGGATT
B20: UCUAUCU (DNA:RNA)
RNA: B5 RNA with G25U, U26C, G28A, C29U, G31U
DNA 1: CAATCTGAATTCCGGTCTCCC
DNA 2: TGGTGGCTACGACGGGATT
B21: CUAUUGA (DNA:RNA)
RNA: B1 RNA with G26U, G27A, C28U, G29U, A30G
DNA 1: CAATCTGAATTCCGGTCTCCC
DNA 2: TGGTGGCTACGACGGGATT
B22: GCCCCUC (DNA:RNA)
RNA: B5 RNA with U26C, U27C, G28C, C30U, G31C
DNA 1: CAATCTGAATTCCGGTCTCCC
DNA 2: TGGTGGCTACGACGGGATT
B23: GCAUGCC (DNA:RNA)
RNA: B5 RNA with U26C, U27A, G28U, C29G, G31C
DNA 1: CAATCTGAATTCCGGTCTCCC
DNA 2: TGGTGGCTACGACGGGATT
B24: AGCCAGA (DNA:RNA)
RNA: B1 RNA with C25A, G27C, G29A, A30G
DNA 1: CAATCTGAATTCCGGTCTCCC
DNA 2: TGGTGGCTACGACGGGATT
B25: GGCCGUU (DNA:RNA)
RNA: B1 RNA with C25G, G27C, A30U, A31U
DNA 1: CAATCTGAATTCCGGTCTCCC
DNA 2: TGGTGGCTACGACGGGATT
B26: UGGCUUA (DNA:RNA)
RNA: B1 RNA with C25U, G29U, A30U
DNA 1: CAATCTGAATTCCGGTCTCCC
DNA 2: TGGTGGCTACGACGGGATT
B27: CAACGUC (DNA:RNA)
RNA: B1 RNA with G26A, G27A, A30U, A31C
DNA 1: CAATCTGAATTCCGGTCTCCC
DNA 2: TGGTGGCTACGACGGGATT
B28: CACAUUG (DNA:RNA)
RNA: B1 RNA with G26A, G27C, C28A, G29U, A30U, A31G
DNA 1: CAATCTGAATTCCGGTCTCCC
DNA 2: TGGTGGCTACGACGGGATT
B29: CGCGUUA (DNA:RNA)
RNA: B1 RNA with G27C, C28G, G29U, A30U
DNA 1: CAATCTGAATTCCGGTCTCCC
DNA 2: TGGTGGCTACGACGGGATT
B30: ACUCGUU (DNA:RNA)
RNA: B1 RNA with C25A, G26C, G27U, A30U, A31U
DNA 1: CAATCTGAATTCCGGTCTCCC
DNA 2: TGGTGGCTACGACGGGATT

How the values were obtained:
RBFOX1 RRM [1] = target: T1, RBFOX1 RRM; assay: EMSA; HiTS-Eq, 1 nM pool, 10 min; buffer printed only for the single-RNA assays: 10 mM Tris pH 7.5, 150 mM NaCl, 3.4 mM EDTA, 0.001% NP-40, 30 C; conditions: tags: His6 N-terminal (pET28a); label: 5' 32P
Method in brief: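 Purified RbFox RRM (wild type or mutant) was equilibrated for 10 min in 50 µL with 1 nM of a 5′-radiolabelled pool of RNA with 7 randomized nucleotides, its flanks annealed to DNA oligonucleotides, across increasing protein concentrations. Free RNA was separated by 8% native PAGE, excised, reverse-transcribed, PCR-barcoded and sequenced on an Illumina HiSeq 2500. Relative association constants came from read-count changes of each variant against the control reaction, normalised to the cognate motif.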

RBFOX1 RRM [2] = target: T1, RBFOX1 RRM; assay: competition; 10 mM Tris pH 7.5, 150 mM NaCl, 3.4 mM EDTA, 0.001% NP-40, 30 C; conditions: tags: His6 N-terminal (pET28a)

Binder	binding signal (RBFOX1 RRM [1])	binding signal (RBFOX1 RRM [2]) [nM]
B1	0.0142 KA relative to UGCAUGU	
B2	0.00671 KA relative to UGCAUGU	
B3	0.0418 KA relative to UGCAUGU	
B4	0.00509 KA relative to UGCAUGU	
B5	0.0171 KA relative to UGCAUGU	
B6	0.000955 KA relative to UGCAUGU	
B7	0.00755 KA relative to UGCAUGU	
B8	0.00829 KA relative to UGCAUGU	
B9	0.0062 KA relative to UGCAUGU	
B10	0.0143 KA relative to UGCAUGU	
B11	0.00414 KA relative to UGCAUGU	
B12	0.0165 KA relative to UGCAUGU	
B13	0.00888 KA relative to UGCAUGU	
B14	0.0143 KA relative to UGCAUGU	
B15	0.00714 KA relative to UGCAUGU	
B16	0.0106 KA relative to UGCAUGU	

Binder	binding signal (RBFOX1 RRM [1])	binding signal (RBFOX1 RRM [2]) [nM]
B17	0.0049 KA relative to UGCAUGU	
B18	0.0294 KA relative to UGCAUGU	
B19	0.00327 KA relative to UGCAUGU	
B20	0.00434 KA relative to UGCAUGU	
B21	0.0108 KA relative to UGCAUGU	
B22	0.00515 KA relative to UGCAUGU	
B23	0.829 KA relative to UGCAUGU	
B24	0.0106 KA relative to UGCAUGU	
UGCAUAU (ssRNA)		1780
B25	0.0141 KA relative to UGCAUGU	
B26	0.0196 KA relative to UGCAUGU	
B27	0.00397 KA relative to UGCAUGU	
B28	0.00617 KA relative to UGCAUGU	
B29	0.00577 KA relative to UGCAUGU	
B30	0.00477 KA relative to UGCAUGU	
